Here are results for 83 compounds from PubChem BioAssay AID1346428 (National Center for Advancing Translational Sciences (NCATS), 2018).

“And” between values parts separate entries of the source, which are not always exact repeats. Equal values may be shown once. The whole screen tested about 48,000 compounds, of which about 1,200 (2.5%) were called active. Not shown: some 2% with an inconclusive outcome.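 Rule for the calls: active = activation of at least 60% and not above a set upper limit (about 1 call in 100 departs from these limits); inconclusive = activation of 40% to 60%, or above that upper limit; inactive = activation under 40%.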 The list shows a part of the results.

This assay has as its target Probable G-protein coupled receptor 32 (Homo sapiens) (UniProt O75388). The assay can be described thus: qHTS for Agonists of Human Resolvin D1 Receptor DRV1. Note: 0% is about no effect. As to conditions: CHO-K1 GPR32 beta-arrestin PathHunter luminescence, 90 min; at 76.9 µM; active compounds read high; zero percent set by DMSO-only wells. The method in brief: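 Cells are plated overnight, treated with compounds in DMSO for 90 minutes at 37 °C, and developed with PathHunter detection reagent for 1 hour before luminescence is read; signal reflects beta-arrestin binding to GPR32 in engineered CHO-K1 cells.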
Sequence of UniProt O75388 (O75388 whole entry, looked up): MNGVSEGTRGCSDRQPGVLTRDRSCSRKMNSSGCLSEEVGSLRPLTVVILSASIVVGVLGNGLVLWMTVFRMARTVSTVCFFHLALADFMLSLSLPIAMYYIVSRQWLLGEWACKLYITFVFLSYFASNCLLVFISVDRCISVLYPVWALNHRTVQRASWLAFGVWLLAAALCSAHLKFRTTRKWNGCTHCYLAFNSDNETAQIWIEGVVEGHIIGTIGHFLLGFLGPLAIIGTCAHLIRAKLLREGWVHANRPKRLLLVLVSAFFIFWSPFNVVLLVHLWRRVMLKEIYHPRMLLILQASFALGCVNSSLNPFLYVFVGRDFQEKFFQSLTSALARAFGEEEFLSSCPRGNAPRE
Background: Quantitative high-throughput screening tests each substance at several concentrations.
On to `Cc1cc(C)c2c(=O)cc(C(=O)NCCc3ccc(S(N)(=O)=O)cc3)oc2c1`, for which the activation is inactive: 11.1%.

As to `COc1ccc(NS(=O)(=O)c2ccc3c(c2)CCN3C(=O)C2CC2)cc1OC`, the activation is inactive: 20.9%.

Regarding `Cc1ccccc1CNC(=O)C(=O)NCC(c1ccco1)S(=O)(=O)c1ccc(F)cc1` (stereo not drawn), the activation is inactive: -8.45%.

As for `COc1cccc(CNC(=O)Cn2c(=O)c3cccn3c3ccc(F)cc32)c1OC`, the activation is inactive: -12.8%.

Take `CCN1CCOC(=O)C1CC(=O)Nc1ccccc1C(F)(F)F` (stereo not drawn): the activation is inactive: 29.1%.

As to `Cc1cccc(NC(=O)C2CCC(CNS(=O)(=O)c3ccc4c(c3)CCCC(=O)N4)CC2)c1C` (stereo not drawn), the activation is inactive: -11%.

With `CCCN(C(=O)C1CCN(S(=O)(=O)c2c(C)noc2/C=C/c2ccc(C)cc2)CC1)c1ccccc1F`, the activation was inactive: -18.3%.

With `Cc1nc(-c2ccc(F)cc2)sc1CCNC(=O)c1ccccc1`, the activation is active: 62.2%.

With `CCOCCCNC(=O)c1c(NC(=O)Cc2coc3c(C)c(C)ccc23)sc2c1CCC2`, the activation was inactive: -16.7%.

Consider `Cc1cc(C)cc(N(C)S(=O)(=O)c2nnc(NC(=O)COc3ccc(C)c(C)c3)s2)c1`, for which the activation was inactive: 12.1%.

Regarding `CC(=O)c1ccc(NC(=O)c2cccc(NC(=O)N3CCSc4ncccc43)c2)cc1`, the activation was inactive: -0.577%.

For `COc1cc(OC)c(NC(=O)COc2ccccc2-c2nnc(-c3ccccc3)o2)cc1Cl`, the activation is inactive: 21.4%.

Take `CCCN(Cc1cc2cc(C)ccc2[nH]c1=O)C(=O)c1cccc(Cl)c1`: the activation is inactive: -12.5%.

In the case of `COC(=O)c1cc(C)nc2c1c(=O)nc(SCc1cc(C)ccc1C)n2C1CC1`, the activation is inactive: 2.49%.

In the case of `CCCCCCCCCCCCCCCCCCO`, the activation is inactive: -12.7%.

Turning to `Cc1cccc(C(=O)NC2(C(F)(F)F)N=C(c3ccccc3)N(Cc3ccccc3)C2=O)c1` (stereo not drawn), the activation was inactive: -9.42%.

`Cc1c(Cl)cccc1NC(=O)CN1C(=O)c2ccccc2Sc2ncccc21`: the activation was inactive: 2.32%.

Turning to `CCc1ccccc1Nc1nn2c(=O)c3ccc(C(=O)NCCc4ccccc4)cc3nc2s1`, the activation was inactive: 25.1%.

For the compound `O=C(CSc1nc2ccccc2n1CC(=O)Nc1ccc(F)cc1F)Nc1ccc(F)cc1`, the activation is inactive: -3.9%.

As for `CC(=O)N1CCc2c(sc3c2c(=O)n(-c2ccccc2Cl)c(=O)n3C)C1`, the activation was inactive: -18.3%.

In the case of `Cc1ccc(-c2c(CN3CCN(c4cc(Cl)ccc4C)CC3)csc2C)cc1`, the activation is inactive: -21.8%.

On to `COCCCN1CCc2nc(SCC(=O)Nc3ccc(C)c(Cl)c3)[nH]c(=O)c2C1`, for which the activation was inactive: -5.78%.

In the case of `CCn1c(=O)c2cc(C(=O)NCCc3cccc(C)c3)sc2c2ccccc21`, the activation was inactive: -1.3%.

Turning to `CCOc1ccc2c(c1)c(=O)c(S(=O)(=O)c1ccc(C)cc1)cn2CC(=O)Nc1ccc(C)cc1`, the activation is inactive: -5.67%.

With `COc1ccc(-n2c(SCc3nc(-c4ccc(C)cc4)no3)nnc2-c2ccncc2)cc1`, the activation was inactive: 0.748%.

For `Cc1ccc(Nc2cc(C(=O)NC3CCCC3)c3ccccc3n2)cc1C`, the activation is inactive: 45.7%.

Regarding `Nc1ncc(S(=O)(=O)NCc2ccccc2F)cn1`, the activation was inactive: -0.573%.

As to `COc1ccccc1N1CCN(C(=O)C2CCN(S(=O)(=O)c3cccc4nonc34)CC2)CC1`, the activation was inactive: -21.5%.

Consider `CC(C)COc1ccc(C(=O)NCC2OCCc3ccccc32)cc1` (stereo not drawn), for which the activation was inactive: 40.5%.

In the case of `CCOC(=O)c1c(C)n(-c2ccccc2)c2ccc(OC(=O)c3ccccc3Cl)cc12`, the activation is inactive: -7.98%.

`CCOc1ccc(CCNC(=O)C2CCCN(c3nnc(C)c4c(C)n(-c5ccccc5)nc34)C2)cc1` (stereo not drawn): the activation is inactive: -0.259%.

For the compound `NC(=O)c1c(NC(=O)c2noc3c2CCCC3)sc2c1CCCC2`, the activation was inactive: 4.02%.

Regarding `CCOc1cc2[nH]c(=O)n(CCC(=O)N3CCN(c4cccc(Cl)c4)CC3)c(=O)c2cc1OCC`, the activation was inactive: -1.92%.

On to `COC(=O)c1cc(NC(=O)CCS(=O)(=O)c2cc(Br)cc3c2N(C(=O)C2CC2)CC3)cc(C(=O)OC)c1`, for which the activation was inactive: -4.37%.

In the case of `COc1ccc2oc(=O)c(C(=O)NCCc3c(C)[nH]c4c(C)cccc34)cc2c1`, the activation is inactive: -13.1%.

Regarding `Cc1ccccc1C(=O)Nc1ccc(NC(=O)c2cccs2)cc1`, the activation was inactive: 1.94%.

With `CCn1c2ccccc2c2cc(NC(=O)COc3cc(C)c(Cl)c(C)c3)ccc21`, the activation was inactive: -24%.

With `CCOC(=O)Cn1nc(C)c(NC(=O)COc2ccc(OC)cc2)c1C`, the activation was inactive: -1.2%.

Regarding `COc1ccc(C(=O)NCC(c2ccco2)S(=O)(=O)c2ccccc2)cc1` (stereo not drawn), the activation is inactive: -6.82%.

For `CCOC(=O)c1c(C)oc2nc(C)nc(N3CCN(c4ccc(C)cc4C)CC3)c12`, the activation is inactive: -1.72%.

For `CC1(C)O[C@@H]2C[C@H]3[C@@H]4CCC5=CC(=O)C=C[C@]5(C)[C@@]4(F)[C@@H](O)C[C@]3(C)[C@]2(C(=O)CO)O1`, the activation was inactive: -27.8%.

In the case of `CC(=O)N1CCCc2cc(S(=O)(=O)N3CCC(C(=O)NCc4ccc(F)cc4)CC3)ccc21`, the activation is inactive: 8.39%.

On to `Cc1ccc(-c2nnc(Nc3ccc(OCC(N)=O)cc3)c3ccccc23)cc1S(=O)(=O)NCC1CCCO1` (stereo not drawn), for which the activation is inactive: -14.9%.

As for `O=C(CSc1n[nH]c(-c2ccccc2)n1)N1CCN(c2ccc(F)cc2)CC1`, the activation is inactive: -0.981%.

Consider `Cc1noc(Cn2c(=O)c3ccccc3n(CC(=O)Nc3cc(Cl)ccc3C)c2=O)n1`, for which the activation was inactive: -10.9%.

For `CCOC(=O)c1[nH]c2ccccc2c1NC(=O)c1ccc(C)c(C)c1`, the activation is inactive: 34.6%.

In the case of `CCC(C(=O)NCCc1ccc(OC)c(OC)c1OC)n1nc(C)c2sc3ccccc3c2c1=O` (stereo not drawn), the activation was inactive: -23.7%.

As for `Cc1ccc(CNC(=O)C2CCN(C(=O)N3CC(C)Oc4ccc(Cl)cc43)CC2)cc1` (stereo not drawn), the activation was inactive: -9.09%.

`CCOc1ccccc1NC(=O)CN1C(=O)CC(c2ccc(C)c(C)c2)=Nc2ccccc21`: the activation was inactive: -5.74%.

Consider `O=C(O)C(S)C(S)C(=O)O` (stereo not drawn), for which the activation was inactive: -75.8%.

As for `Cc1ccc(-n2c(=O)c3c(cnn3C)n(CC(=O)Nc3cccc(Cl)c3)c2=O)cc1`, the activation is inactive: -1.71%.

Regarding `Cc1cc(C)cc(NC(=O)C(C)N2Cc3ccccc3C2=O)c1` (stereo not drawn), the activation was inactive: -16.9%.

For `Cc1ccc(C)c(N2CCN(CCCNC(=O)c3cnn(-c4cccc(Cl)c4)c3C3CCN(C(=O)OC(C)(C)C)CC3)CC2)c1`, the activation is inactive: -18.1%.

For the compound `CCOc1ccc(NC(=O)c2ccc3c(=O)n4c(nc3c2)CCCCC4)cc1`, the activation was inactive: -19.1%.

Regarding `CCc1ccccc1NC(=O)CCn1cccn1`, the activation was inactive: -5.53%.

Regarding `Cc1ccc(CSc2nc3ccccc3c3nc(CCn4c(C)nc5ccccc54)nn23)cc1`, the activation is inactive: -9.28%.

As for `CCn1nc(C(=O)O)c(=O)c2cc3c(cc21)OCO3`, the activation was inactive: 0.648% and inactive: -1.67%.

Consider `CCCNC(=O)CN1C(=O)COc2ccc(S(=O)(=O)N3CCCCCC3)cc21`, for which the activation was inactive: -5.61%.

In the case of `COc1cccc(NC(=O)C(C)n2c(=O)cc(C(F)(F)F)c3c(C)nn(C)c32)c1` (stereo not drawn), the activation is inactive: 13.7%.

For `Cc1ccc(-c2nnc(SCc3ccccc3)o2)cc1`, the activation is inactive: -18.8%.

As to `O=C(NCc1cccc(Br)c1)C1CCCCN1S(=O)(=O)c1ccc(F)cc1` (stereo not drawn), the activation was inactive: -17%.

With `CC(C)Oc1ccc(CNC(=O)C(C)n2ccc3cc(S(=O)(=O)N4CCCCCC4)ccc32)cc1` (stereo not drawn), the activation was inactive: 1.79%.

Regarding `CC1CCN(S(=O)(=O)c2ccc3c(c2)N(C)C(=O)CC(=O)N3C)CC1`, the activation is inactive: 30.2%.

On to `CCc1ccc(CNC(=O)CN2C(=O)C3CCCCN3c3ccc(C(=O)N4CCCC4)cc32)cc1` (stereo not drawn), for which the activation is inactive: -26.9%.

Take `COc1ccc(OCc2nc3ccccc3n2Cc2ccc(C(C)(C)C)cc2)cc1`: the activation is inactive: -8.05%.

With `CCc1ccccc1NC(=O)Cn1c(=O)n(C(C)C)c(=O)c2oc3ccccc3c21`, the activation is inactive: -11.2%.

`CCOc1ccccc1NC(=O)Cn1c(=O)nc(-c2ccccc2F)c2cc(Cl)ccc21`: the activation was inactive: 5.42%.

In the case of `COc1ccccc1NC(=O)c1cc2c(-c3ccccc3)nn(-c3ccccc3)c2s1`, the activation is inactive: 1.05%.

As to `COc1ccc(S(=O)(=O)Nc2cccc(-c3ccc(N4CCCC4)nn3)c2)cc1F`, the activation is inactive: -5.95%.

On to `CC1=C(C(N)=O)C(c2ccc(C)cc2)n2nc(SCc3ccccc3)nc2N1` (stereo not drawn), for which the activation is inactive: -4.23%.

Take `COc1cc2c(cc1OC)CN(C(=O)[C@H](C)N[C@@H](CCc1ccccc1)C(=O)O)[C@H](C(=O)O)C2`: the activation is inactive: -6.22%.

Regarding `CCN1CCN(CCCNC(=O)Cn2nc(C)n3c(cc4c(OC)cccc43)c2=O)CC1`, the activation is inactive: 0.58%.

For the compound `COc1ccccc1-c1nn(CCC(=O)Nc2ccc(C)cc2)c2nc(C)cc(C)c12`, the activation was inactive: 2.49%.

Take `Cc1ccccc1NC(=O)CSc1ccc(-c2ccccn2)nn1`: the activation is inactive: -9.11%.

As to `O=C(NCc1ccccc1Cl)C1=Cc2cc(Br)ccc2OC1`, the activation was inactive: -18.4%.

As to `CC(C)Oc1ccc(CNC(=O)c2cnc3sc(N4CCCC4)nn3c2=O)cc1`, the activation is inactive: -5.16%.

As to `CCOC(=O)NNC(=O)C1CCC(C)CC1` (stereo not drawn), the activation was inactive: -2.31%.

Regarding `Cc1oc2c(c1C(=O)NCc1ccccc1F)C1=NCCN1C=N2`, the activation is inactive: -9.31%.

For the compound `O=C(NCC(c1ccc2c(c1)OCO2)N1CCN(c2ccccc2)CC1)C(=O)Nc1ccccc1F` (stereo not drawn), the activation was inactive: 3.42%.

On to `CCN(CC)C(=O)Cn1ncc2c([nH]c3ccccc32)c1=O`, for which the activation is inactive: -12.6%.

In the case of `COc1cccc(N2CCN(C(=O)c3ccc4nc(N5CCC(C)CC5)sc4c3)CC2)c1`, the activation is inactive: -29.6%.

As for `CCOC(=O)c1cnc2ccc(C(=O)OC)cc2c1Nc1ccc(OCc2ccccc2Cl)cc1`, the activation is inactive: -3.26%.

Take `CC(=O)Nc1cccc(-c2nnc(SCC(=O)c3cc([N+](=O)[O-])ccc3Cl)o2)c1`: the activation is inactive: 10%.
